Test results reported in article PMC4336329 (PLoS ONE, 2015).
About 14,000 (4.5%) of roughly 310,000 compounds showed an effect of 50% or more. The effect is printed as a negative number. This is one part of the list.

Target: human ether-à-go-go-related gene (hERG) potassium channel (human, UniProt Q12809)
Experiment: primary screen, population patch clamp on CHO cells stably expressing hERG
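Note: peak tail current of the secondary pulse compared with the same well before compound.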

Chain of human ether-à-go-go-related gene (hERG) potassium channel (Q12809 whole entry, looked up): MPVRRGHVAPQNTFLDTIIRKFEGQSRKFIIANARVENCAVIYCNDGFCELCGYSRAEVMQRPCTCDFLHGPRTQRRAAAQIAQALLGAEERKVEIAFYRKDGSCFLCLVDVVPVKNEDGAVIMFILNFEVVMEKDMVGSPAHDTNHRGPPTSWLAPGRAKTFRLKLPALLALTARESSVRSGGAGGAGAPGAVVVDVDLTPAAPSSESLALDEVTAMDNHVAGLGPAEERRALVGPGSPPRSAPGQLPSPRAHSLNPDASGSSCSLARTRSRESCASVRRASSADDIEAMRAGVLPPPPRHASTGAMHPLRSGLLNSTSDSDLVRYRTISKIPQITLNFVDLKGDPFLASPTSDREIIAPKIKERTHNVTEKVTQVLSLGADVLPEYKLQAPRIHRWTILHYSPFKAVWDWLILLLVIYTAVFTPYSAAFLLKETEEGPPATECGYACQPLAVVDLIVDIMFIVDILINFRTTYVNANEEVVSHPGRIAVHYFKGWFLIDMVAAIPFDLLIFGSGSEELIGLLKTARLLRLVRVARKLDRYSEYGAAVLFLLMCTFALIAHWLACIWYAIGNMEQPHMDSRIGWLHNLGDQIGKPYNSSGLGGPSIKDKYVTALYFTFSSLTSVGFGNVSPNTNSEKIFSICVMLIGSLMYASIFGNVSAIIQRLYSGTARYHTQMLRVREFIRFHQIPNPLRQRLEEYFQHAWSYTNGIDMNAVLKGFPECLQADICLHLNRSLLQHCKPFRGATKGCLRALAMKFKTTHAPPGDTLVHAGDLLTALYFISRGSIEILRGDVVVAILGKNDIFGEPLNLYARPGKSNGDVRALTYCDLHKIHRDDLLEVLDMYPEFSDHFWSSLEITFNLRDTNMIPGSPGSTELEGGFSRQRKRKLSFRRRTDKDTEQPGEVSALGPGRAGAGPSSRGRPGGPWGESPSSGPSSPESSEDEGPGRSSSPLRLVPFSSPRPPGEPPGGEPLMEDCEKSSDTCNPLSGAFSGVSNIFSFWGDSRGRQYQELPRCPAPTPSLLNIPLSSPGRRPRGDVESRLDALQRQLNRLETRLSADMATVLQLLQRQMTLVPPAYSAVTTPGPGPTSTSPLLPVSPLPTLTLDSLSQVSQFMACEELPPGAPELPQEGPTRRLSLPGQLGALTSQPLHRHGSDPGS

Row | Compound | hERG current change (%, negative = inhibition) at 10uM [%]
1 | CCN(CC)CCN(Cc1cc2cc(C)ccc2[nH]c1=O)C(=O)Nc1ccccc1OC | -62.2
2 | CCCCNc1nc(N)nc(-c2cc(Cl)ccc2O)n1 | 20.9
3 | O=c1c2ccccc2ccc2ccccc12 | -0.0838
4 | CCOC(=O)c1nn(-c2ccccc2)c(=O)c2c(NC(C)=O)scc12 | 8.83
5 | COc1ccccc1N1C(=O)N(C(C)=O)C2C1Nc1ccccc1N2C (stereo not shown) | -12.7
6 | Cn1c(CC(=O)Nc2ccc(Cl)cc2)nnc1SCC(=O)N1CCOCC1 | -0.702
7 | COc1ccc(Cl)cc1NC(=O)c1nnn(CC(=O)Nc2cc(C)cc(C)c2)c1N | 21
8 | O=C(Nc1ccc(CN2CCOCC2)cc1)c1ccc(-c2cccc(Cl)c2)o1 | -52.8
9 | CC(C)(C)N(CC#CCC(O)(c1ccccc1)c1ccccc1)CCO | -10.6
10 | CN(C)CCCNc1nc(-c2ccccc2)nc2ccccc12.Cl | -13.5
11 | CN(C)CCNC(=O)C(C(=O)c1ccc(F)cc1)n1ccccc1=O.Cl (stereo not shown) | 16.6
12 | Fc1cccc(Cn2cc(C(=S)N3CCCCC3)c3ccccc32)c1 | 6.93
13 | COc1ccccc1C(=O)C1CCCN(C(=O)c2cn3cc(Cl)ccc3n2)C1 (stereo not shown) | -17.3
14 | CCCc1cnc(NCCNCC(O)COc2ccc(Cl)c(Cl)c2)nc1 (stereo not shown) | -71.2
15 | CCc1c(C)[nH]c2ccccc2c1=O | -13.1
16 | COc1ccc(NC(=O)CC(C)c2ccccc2)c([N+](=O)[O-])c1 (stereo not shown) | -11.2
17 | CC(NC(=O)c1ccco1)C(=O)OCC(=O)N1CCCCCC1 (stereo not shown) | 11.1
18 | Cc1cc(C)cc(C(=O)Nc2ccc(NC(=O)Cc3ccccc3)cc2)c1 | 23.2
19 | COc1ccccc1OCCNS(=O)(=O)c1ccc2oc3ccccc3c2c1 | -16.4
20 | Cc1ccc(CN2CC(C(=O)N3CCN(S(=O)(=O)c4cc(C)ccc4C)CC3)CC2=O)cc1 (stereo not shown) | -47.6
21 | O=S(=O)(NCc1cccs1)NCc1ccccc1F | 3.98
22 | Cc1ccc(C(=O)CSc2nnc(CNc3ccc(F)cc3)o2)cc1 | 29.3
23 | Nc1ncnc(Nc2c(F)cccc2F)n1 | -3.04
24 | CCc1nc2ccccc2n1CC(=O)N(C(C)CC)C1CCS(=O)(=O)C1 (stereo not shown) | 5.72
25 | Cc1onc(-c2ccccc2)c1C(=O)Nc1nncs1 | 12.9
